# The supplement of paper PMC3334620
# Whole data set: some 33,000 sequences, median “E-score (-0.5 to 0.5)” near -0.017, cut for the highest 2% near 0.3. The list shows a part of the results.
# Target: T1, Sut1 (UniProt P53032)
# T1 sequence: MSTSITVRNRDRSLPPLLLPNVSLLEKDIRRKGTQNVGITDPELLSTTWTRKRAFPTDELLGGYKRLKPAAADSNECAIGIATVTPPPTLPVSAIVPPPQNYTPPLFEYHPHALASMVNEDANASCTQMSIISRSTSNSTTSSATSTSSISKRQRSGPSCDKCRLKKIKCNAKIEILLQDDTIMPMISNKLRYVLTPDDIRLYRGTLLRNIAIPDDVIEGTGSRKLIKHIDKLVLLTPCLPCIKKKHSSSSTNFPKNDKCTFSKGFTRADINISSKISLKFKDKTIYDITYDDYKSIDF
# Experiment: PBM E-score (8-mer binding enrichment) (E-score (-0.5 to 0.5)); higher = stronger / more preferred TF binding; most listed sequences are background and not binding sites
# Conditions: protein concentration: 200 nM; construct: GST-full length
# Protocol: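 Universal 'all 10-mer' protein binding microarrays (Agilent AMADID 015681) probed with GST-tagged S. cerevisiae TFs (full-length or DBD) made by in vitro transcription/translation (PURExpress), about 100-200 nM. Bound TF was detected with fluorescent anti-GST. Each ungapped 8-mer (which stands for itself and its reverse complement) is scored by the PBM enrichment score (E-score), a modified Wilcoxon-Mann-Whitney statistic from -0.5 to +0.5, computed with the Universal PBM Analysis Suite. Scale: above 0.35 generally sequence-specific binding.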
row,Sequence,PBM E-score
1,GTGGAGGA,-0.0728
2,CTGACTGC,-0.116
3,GGAAATTA,0.286
4,AGCTGGTA,-0.169
5,CTCAGTCA,-0.164
6,GACACGCC,-0.123
7,AACTCACG,-0.17
8,TAGTGAGA,0.137
9,AGTGGTCG,-0.114
10,TAGTTCAA,0.0939
11,CCTATACG,-0.0397
12,GGAGTCCC,0.155
13,ATCTAACA,0.141
14,ATGGAGCG,-0.162
15,AAAAAATG,0.241
16,GTTATAGA,0.126
17,GGGAAGGA,-0.207
18,CGGCGGTA,0.14
19,CCAACGGC,-0.126
20,GCGGCTGA,-0.258
21,TCCGCAAA,0.258
22,CGGATTAG,0.0268
23,AAGATCTA,-0.0686
24,AACGTCCA,-0.064
25,CCCTATAC,-0.133

row,Sequence,PBM E-score
1,CCCGGTGC,-0.224
2,CGGAAGCA,0.228
3,ATCGGACA,0.257
4,ACCCCAAG,-0.159
5,ATTGGCGG,-0.0124
6,GACCTTAC,-0.00752
7,CGTGAATA,0.176
8,AAGTACCC,-0.0435
9,CATATATC,-0.0165
10,CCTGTTAG,-0.0146
11,ACTCGTAA,0.114
12,ATCTGGCG,-0.0659
13,CCAACAGC,-0.0867
14,GAGGCGGA,0.0432
15,CCAGACAG,-0.0646
16,TGGTGACA,-0.118
17,ATCGCGAT,0.13
18,AGGTGTAA,0.11
19,CGCTGGTC,-0.329
20,ATCTCTGG,-0.195
21,GATCCTAC,-0.0447
22,CAAAGTGC,0.0175
23,ACTCCCCT,-0.103
24,CGCCACAA,-0.0776
25,TCGCCACA,-0.2

row,Sequence,PBM E-score
1,CGTGATTC,-0.103
2,ACGGGGGC,-0.294
3,CCTTTGAA,-0.0516
4,CATAGTAA,0.136
5,CTGTGGCA,-0.228
6,TAGATCCA,-0.00709
7,GGGGCCGA,-0.343
8,ACTATCAC,0.114
9,AAGGTACT,0.0546
10,ATGGCCTC,-0.123
11,AACCGAGC,0.146
12,AGTGCAAG,0.0115
13,AGCGAGTC,-0.0124
14,CACAATTC,0.139
15,GAGCGCCC,-0.246
16,TACATAAA,0.211
17,ACAACGCC,0.0884
18,TCAATAGA,0.137
19,CGGCCGAG,-0.0772
20,CCCCAAGC,-0.0954
21,GAGAATGC,0.0169
22,CCTAGGGA,-0.0185
23,GTGCGATA,-0.00475
24,GAGTGTGC,0.141
25,ATGACTGC,0.00267

row,Sequence,PBM E-score
1,TCCTCCAA,-0.023
2,CTGAACTC,-0.0264
3,GCGTGAAA,0.0003
4,ACTCCAAT,0.0796
5,ATGACTTG,-0.00572
6,ACTATGTA,-0.0435
7,AATACCCG,-0.14
8,ATCTTCGA,0.00133
9,CTGGCAAA,0.0918
10,GCCCACGA,-0.199
11,GAGTAAAA,0.141
12,ACTAAATG,0.0164
13,GCGTGCAA,-0.225
14,CAGGAAGC,-0.0659
15,AGATGTCC,0.196
16,AAGCTGGG,-0.21
17,AGTGCCAC,-0.182
18,AAAACCGG,0.185
19,CTCCATAA,0.07
20,CTAAGACC,-0.0285
21,AAGTGCCG,-0.00956
22,TGGGACCA,-0.111
23,AGAGCCAA,0.00258
24,AAAAAACC,0.0814
25,GCTGGACA,-0.168

row,Sequence,PBM E-score
1,CCGCGAGG,0.0858
2,CTCTTCGA,0.0214
3,AGCGGACG,-0.118
4,AGTCTCCC,-0.0841
5,AGCTATAT,0.145
6,CGCTGAAA,0.0486
7,CCCTTCCC,-0.291
8,GGGCGAGA,-0.219
9,TCAATTCA,0.172
10,GCCTCCTA,-0.172
11,GAGGCGGC,-0.101
12,ACTGGTGC,-0.174
13,GTAGGGAC,-0.271
14,TAGCCTAA,-0.0657
15,CATATGAG,-0.0348
16,GTACGGTA,-0.0214
17,GGCAGGAA,-0.127
18,ATCCGAAA,0.272
19,ACCAAGAC,-0.072
20,TCAGTTAA,0.171
21,ACTGCATG,-0.121
22,CACACATC,-0.168
23,TTCAAAAA,0.242
24,TAAGCTTA,0.0477
25,CCATCTGA,-0.141

row,Sequence,PBM E-score
1,CAAGCAAA,0.0589
2,TGGAGACA,-0.113
3,GTCGGACA,0.271
4,AGGATATA,0.208
5,GCTTTAGA,-0.00855
6,CCAGTGTA,-0.0483
7,AATAGCCT,-0.0867
8,ACAGCATG,-0.124
9,GGCGACCA,-0.292
10,GTAGAACA,-0.233
11,GGCTGTTA,0.0481
12,GCTTTCTA,0.113
13,AACTAATT,0.186
14,CGTCGTTA,0.0641
15,CACACAAG,0.0136
16,CGGGACAC,-0.265
17,CAATGTTA,0.101
18,AAAACTGG,0.149
19,ACCTCGCC,-0.248
20,CGAAGCAC,-0.00994
21,TATACATA,0.225
22,ACAGCACT,0.0434
23,ATGGTGAC,-0.122
24,AGGGACTA,-0.165
25,AATTCCCG,-0.0339

row,Sequence,PBM E-score
1,AATGATGG,0.0762
2,CAGAACTC,0.0167
3,GATAACAC,0.0535
4,CAAGAATG,0.0903
5,ACATACAC,0.105
6,AGGTATCC,0.0539
7,GCTGACGA,-0.117
8,CCCGGAGA,0.374
9,CGTGAAAA,0.194
10,GTGCTGCA,-0.0495
11,GGAGGAAA,-0.00077
12,GCGTGCGA,-0.084
13,ATCAGGGC,-0.189
14,CGATAGGC,-0.138
15,CTTCATCA,0.0503
16,CACAAGGA,-0.0575
17,GTTCGAGA,-0.134
18,ATAAAGCC,-0.0535
19,AATTGCGG,0.119
20,ACTGGGGG,-0.312
21,GCGACGCC,-0.15
22,CGGGTGAC,-0.164
